{"source": "patent US11529425B2", "about": "“Immunoconjugates comprising signal regulatory protein alpha” (DINGFU BIOTARGET CO., LTD., priority 2017, dated 2022)", "molecules": {"B1": {"name": "mPD-L1-CV1: heterodimer of mPD-L1-Fc9 and CV1-Fc6, Group 15 (protein)", "chain 1": "QVQLQQSGPGLVKPSQTLSLTCAISGDSVSSTKAAWYWIRQSPSRGLEWLGRTYFRSKWYNDYADSVKSRLTINPDTSKNQFSLQLKSVSPEDTAVYYCARGQYTAFDIWGQGTMVTVSSGILGSGGGGSGGGGSGGGGSQSALIQPASVSGSPGQSITISCTGTSSDVGGYDLVSWYQQYPGQAPRLIIYEVIKRPSGISDRFSGSKSGNTASLTISGLQAEDEADYYCCSYAGRRLHGVFGGGTQLTVL[not shown - human IgG1 Fc with T366W K409A (EU numbers)]", "chain 2": "EEELQIIQPDKSVLVAAGETATLRCTITSLFPVGPIQWFRGAGPGRVLIYNQRQGPFPRVTTVSDTTKRNNMDFSIRIGNITPADAGTYYCIKFRKGSPDDVEFKSGAGTELSVRAKPSGGGGSDKTHTCPPCPAPELLGGPSVFLFPPKPKDTLMISRTPEVTCVVVDVSHEDPEVKFNWYVDGVEVHNAKTKPREEQYNSTYRVVSVLTVLHQDWLNGKEYKCKVSNKALPAPIEKTISKAKGQPREPQVYTLPPSRDELTKNQVSLSCGVKGFYPSDIAVEWESNGQPENNYKTTPPVLDSDGSFKLASKLTVDKSRWQQGNVFSCSVMHEALHNHYTQKSLSLSPGK"}, "B2": {"name": "mPD-L1-mSIRPα: heterodimer of mPD-L1-Fc9 (anti-mouse PD-L1 ScFv) and mouse SIRPα-Fc6, Group 6 (protein)", "mPD-L1-Fc9 (anti-mouse PD-L1 …": "QVQLQQSGPGLVKPSQTLSLTCAISGDSVSSTKAAWYWIRQSPSRGLEWLGRTYFRSKWYNDYADSVKSRLTINPDTSKNQFSLQLKSVSPEDTAVYYCARGQYTAFDIWGQGTMVTVSSGILGSGGGGSGGGGSGGGGSQSALIQPASVSGSPGQSITISCTGTSSDVGGYDLVSWYQQYPGQAPRLIIYEVIKRPSGISDRFSGSKSGNTASLTISGLQAEDEADYYCCSYAGRRLHGVFGGGTQLTVL[not shown - human IgG1 Fc with T366W K409A (EU numbers)]", "mSIRPα-Fc6": "KELKVTQPEKSVSVAAGDSTVLACTLTSLLPVGPIRWYRGVGPSRLLIYSFAGEYVPRIRAVSDTTKRNNMDFSIRISAVTPADAGIYYCVKFQKGSSEPDTEIQSGGGTEVYVLAGGGGSDKTHTCPPCPAPELLGGPSVFLFPPKPKDTLMISRTPEVTCVVVDVSHEDPEVKFNWYVDGVEVHNAKTKPREEQYNSTYRVVSVLTVLHQDWLNGKEYKCKVSNKALPAPIEKTISKAKGQPREPQVYTLPPSRDELTKNQVSLSCGVKGFYPSDIAVEWESNGQPENNYKTTPPVLDSDGSFKLASKLTVDKSRWQQGNVFSCSVMHEALHNHYTQKSLSLSPGK"}, "B3": {"name": "hu56-Fc6-SIRPα: heterodimer of hu56-Fc9 and hu56-Fc6-SIRPα (SIRPα at C-terminus of Fc6), Group 10 (protein)", "chain 1": "QVQLVESGGGLVQPGGSLRLSCAASGKMSSRRCMAWFRQAPGKERERVAKLLTTSGSTYLADSVKGRFTISRDNSKNTVYLQMNSLRAEDTAVYYCAADSFEDPTCTLVTSSGAFQYWGQGTLVTVSSEPKSSDKTHTCPPCPAPELLGGPSVFLFPPKPKDTLMISRTPEVTCVVVDVSHEDPEVKFNWYVDGVEVHNAKTKPREEQYNSTYRVVSVLTVLHQDWLNGKEYKCKVSNKALPAPIEKTISKAKGQPREPQVYTLPPCRDELTKNQVSLWCLVKGFYPSDIAVEWESNGQPENNYKTTPPVLDSDGSFFLYSALTVDKSRWQQGNVFSCSVMHEALHNHYTQKSLSLSPGK", "chain 2": "QVQLVESGGGLVQPGGSLRLSCAASGKMSSRRCMAWFRQAPGKERERVAKLLTTSGSTYLADSVKGRFTISRDNSKNTVYLQMNSLRAEDTAVYYCAADSFEDPTCTLVTSSGAFQYWGQGTLVTVSSEPKSSDKTHTCPPCPAPELLGGPSVFLFPPKPKDTLMISRTPEVTCVVVDVSHEDPEVKFNWYVDGVEVHNAKTKPREEQYNSTYRVVSVLTVLHQDWLNGKEYKCKVSNKALPAPIEKTISKAKGQPREPQVYTLPPSRDELTKNQVSLSCGVKGFYPSDIAVEWESNGQPENNYKTTPPVLDSDGSFKLASKLTVDKSRWQQGNVFSCSVMHEALHNHYTQKSLSLSPGKGGGGSGGGGSGGGGSEE[not shown - about 120 residues]"}, "B4": {"name": "AB6.12 IgG1: anti-CD47 monoclonal antibody, AB6.12-HC + AB6.12-LC according to WO2014123580A, Group 20 (antibody)", "heavy": "QMQLVQSGAEVKKTGSSVKVSCKASGFNIKDYYLHWVRQAPGQALEWMGWIDPDQGDTEYAQKFQDRVTITRDRSMSTAYMELSSLRSEDTAMYYCNAAYGSSSYPMDYWGQGTTVTVSS[not shown - human IgG1 constant region]", "light": "NIQMTQSPSAMSASVGDRVTITCKASQDIHRYLSWFQQKPGKVPKHLIYRANRLVSGVPSRFSGSGSGTEFTLTISSLQPEDFATYYCLQYDEFPYTFGGGTKVEIKRTVAAPSVFIFPPSDEQLKSGTASVVCLLNNFYPREAKVQWKVDNALQSGNSQESVTEQDSKDSTYSLSSTLTLSKADYEKHKVYACEVTHQGLSSPVTKSFNRGEC"}}, "key": {"mouse RBCs": {"tested_on": "mouse RBCs", "experiment": "Mouse RBC binding, MC38 tumor cells mixed with 15-fold excess of mouse RBCs", "procedure": "Similarly, MC38 tumor cells were mixed with a 15-fold excess of mouse RBCs, and then incubated with 20 μg/ml, a-mPD-L1, mSIRPα-Fc, CV1-Fc, mPD-L1-CV1, mPD-L1-mSIRPα or isotype control (human IgG1) at 4° C. for 30 min. Then the cells were washed to remove unbound proteins and incubated with an anti-hlgG Fc gamma specific PE antibody at 4° C. for 20 min. The cells were analyzed by flow cytometry (Life Technology). The gate of erythrocytes was assessed by anti-mouse RBC antibody (abcam Cat #ab106101). In FIG. 6g, serial numbers of 1, 2, 3 and 4 correspond to isotype control (human IgG1), mSIRPα-Fc, a-mPD-L1 and mPD-L1-mSIRPα. In FIG. 6h, serial numbers of 1, 2, 3 and 4 correspond to isotype control (human IgG1), CV1-Fc, a-mPD-L1 and mPD-L1-CV1."}, "MC38 tumor cells [1]": {"tested_on": "MC38 tumor cells", "settings": "for anti-tumor efficacy, big dose: FIG. 8e and 8f"}, "RBC": {"tested_on": "RBC", "experiment": "Hemin in serum of tumor-bearing mice (RBC immune lysis)", "type": "in vivo", "settings": "compared to a-mCD47 and mSIRPα-Fc treatment, FIG. 8d"}, "MC38 tumor cells [2]": {"tested_on": "MC38 tumor cells", "experiment": "Combination with chemotherapy (doxorubicin) in MC38 tumor model", "settings": "doxorubicin intratumorally on day 11, mPD-L1-mSIRPα 1 day later"}, "[3]": {"tested_on": "A375 cell (expressing CD47) and A375-PD-L1 tumor cells (expressing both CD47 and PD-L1)", "experiment": "Tumor binding in excess erythrocyte antigen sink, flow cytometry", "settings": "15-fold excess of RBCs", "procedure": "An important concern about CD47-based therapeutics is the expression of the target on the surface of erythrocyte, which has the potential to act as a large antigen sink and cause hematological toxicity. […] The binding of hu56di-SIRPα to tumor cell in excess human erythrocytes antigen sink was therefore assessed by flow cytometry. A375 cell (expressing CD47) and A375-PD-L1 tumor cells (expressing both CD47 and PD-L1) were mixed with a 15-fold excess of RBCs, and then incubated with 20 μg/ml hu56di-SIRPα, SIRPα-Fc IgG1 or AB6.12 IgG1 or isotype control (human IgG1) at 4° C. for 30 min. Then the cells were washed to remove unbound proteins and incubated with an anti-hlgG Fc gamma specific PE antibody at 4° C. for 20 min. The cells were analyzed by flow cytometry (Life Technology). The gate of erythrocytes was assessed by anti-human CD235a (eBiosciences Cat #12-9987-80).\nThen the cells were washed to remove unbound proteins and incubated with an anti-hlgG Fc gamma specific PE antibody at 4° C. for 20 min. The cells were analyzed by flow cytometry (Life Technology). The gate of erythrocytes was assessed by anti-human CD235a (eBiosciences Cat #12-9987-80)."}, "human erythrocytes (RBC)": {"tested_on": "human erythrocytes (RBC)", "experiment": "RBC binding in tumor cell / 15-fold excess RBC mix, flow cytometry", "settings": "tumor cells mixed with 15-fold excess of RBCs, 20 μg/ml, FIG. 6a-6e"}, "CD47-muFc": {"target": "T1, CD47-muFc (Homo sapiens, UniProt Q08722)", "T1 construct": "made in house; host or cells: transiently transfected FreeStyle 293F cells (HEK293)", "T1 sequence (Q08722 with tags, fused parts or gaps)": "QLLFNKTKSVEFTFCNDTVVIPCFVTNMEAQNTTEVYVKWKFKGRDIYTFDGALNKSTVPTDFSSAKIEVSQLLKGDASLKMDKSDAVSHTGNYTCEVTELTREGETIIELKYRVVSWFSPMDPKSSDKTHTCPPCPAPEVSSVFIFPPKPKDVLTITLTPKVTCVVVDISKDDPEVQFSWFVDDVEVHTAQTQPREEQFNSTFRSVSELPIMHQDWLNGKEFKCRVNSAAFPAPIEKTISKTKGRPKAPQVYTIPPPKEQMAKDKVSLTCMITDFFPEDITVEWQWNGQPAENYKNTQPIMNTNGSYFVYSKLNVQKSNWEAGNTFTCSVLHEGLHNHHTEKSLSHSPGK", "experiment": "Binding kinetics by bio-layer inferometry (BLI), Octet K2", "settings": "25° C.", "source_text": "The amino acid sequence of the human CD47 extracellular domain (i.e., the 19th residue to the 141th residue in Q08722) was obtained according to the amino acid sequence of human CD47 (Q08722) in the protein database Uniprot. According to the amino acid sequence of the constant region of murine immunoglobulin gamma1 (P01868) in the protein database Uniprot, the amino acid sequence of muFc (i.e., the 112th residue to the 213th residue in P01868) was obtained. The DNAworks Online Tool (helixweb.nih.gov) was used to design the corresponding coding DNA sequence to obtain the CD47-muFc fusion protein gene, and the DNA fragment was obtained by artificial synthesis. The synthetic gene sequences were cloned into commercial vector pcDNA4/myc-HisA (Invitrogen, V863-20) by Fermentas HindIII and EcoRI. The recombinant plasmids were then sequenced for confirmation, thereby obtaining the plasmid DNA of pcDNA4-CD47-muFc. The amino acid sequences of CD47-muFc is as set forth in SEQ ID NO: 61, and the polynucleotide sequence encoding it is as set forth in SEQ ID NO: 62.\nBinding kinetics of a hu56di-SIRPα immunoconjugate or control antibodies (SIRPα-Fc IgG1 and AB6.12 IgG1) were determined by the bio-layer inferometry (BLI) method using Octet K2 system (FortéBio). All experiments were performed at 25° C. under a PBS buffer containing 0.5% BSA and 0.5% Tween 20, pH 7.2. […]"}}, "note": "Entries after “also recorded” stand apart in the source; their conditions may differ. Where two headings read alike, the source gives them in different places."}
{"molecule": "B1", "values": [{"measurement": "binding to mouse RBC", "setting": "mouse RBCs; MC38 cells with 15-fold excess of mouse RBCs, 20 μg/ml, FIG. 6g/6h", "result": "stronger binding to RBC than mPD-L1-mSIRPα; also recorded: comparable binding to RBC with CV1-Fc"}, {"measurement": "anti-tumor efficacy, big dose", "setting": "MC38 tumor cells [1]", "result": "no therapeutic difference"}]}
{"molecule": "B2", "values": [{"measurement": "safety inferred from mouse RBC binding", "setting": "mouse RBCs; inferred from FIG. 6g/6h", "result": "better safety than mPD-L1-CV1 and mSIRPα-Fc"}, {"measurement": "hemin in serum (RBC immune lysis)", "setting": "RBC", "result": "protected RBC from immune lysis"}, {"measurement": "anti-tumor efficacy, big dose", "setting": "MC38 tumor cells [1]", "result": "no therapeutic difference"}, {"measurement": "survival of tumor-bearing mice", "setting": "MC38 tumor cells [1]; intraperitoneally administered (systemic), FIG. 8c", "result": "prolonged the survival of tumor-bearing mice"}, {"measurement": "tumor growth (tumor volume)", "setting": "MC38 tumor cells [1]; intraperitoneally administered (systemic), compared to isotype control and mixture of mPD-L1 antibody with mSIRPα-Fc, FIG. 8b", "result": "significantly slowed tumor growth"}, {"measurement": "tumor growth (tumor volume)", "setting": "MC38 tumor cells [1]; intratumorally administered, compared to isotype control, mPD-L1 antibody and mSIRPα-Fc, FIG. 8a", "result": "significantly inhibited tumor growth"}, {"measurement": "anti-tumor efficacy, small dose", "setting": "MC38 tumor cells [1]; small dose, FIG. 8g", "result": "better than mPD-L1-CV1"}, {"measurement": "survival, combination with doxorubicin", "setting": "MC38 tumor cells [2]; FIG. 9", "result": "prolonged survival of tumor-bearing mice"}, {"measurement": "tumor growth, combination with doxorubicin", "setting": "MC38 tumor cells [2]; compared to isotype control and either agent alone", "result": "further significantly inhibited tumor growth"}]}
{"molecule": "B3", "values": [{"measurement": "binding to tumor cells (MFI)", "setting": "[3]; 20 μg/ml, tumor cells expressing dual antigen (A375-PD-L1), FIG. 6a/6b", "result": "stronger binding to tumor cells than AB6.12 IgG1"}, {"measurement": "binding to RBC (MFI)", "setting": "human erythrocytes (RBC)", "result": "almost do not bind to RBC"}]}
{"molecule": "B4", "values": [{"measurement": "kon", "setting": "CD47-muFc; association 40 seconds", "result": 651000, "unit": "M⁻¹ s⁻¹"}, {"measurement": "kdis", "setting": "CD47-muFc; dissociation 300 seconds", "result": 0.000129, "unit": "s⁻¹"}, {"measurement": "preference of binding, tumor cells versus RBC", "setting": "[3]; FIG. 6a", "result": "bound tumor cells and RBCs at the same time"}, {"measurement": "binding to RBC (MFI)", "setting": "human erythrocytes (RBC)", "result": "strong binding to RBC"}]}
